{
  "source": "PubChem BioAssay AID624417",
  "about": "(National Center for Advancing Translational Sciences (NCATS), 2012)",
  "note": "Among all 410,000 compounds or so, about 6,400 (1.6%) were called active. Inconclusive results, whose numbers are uncertain, are shown with a selection of clear calls. Calls come from the whole dose curve; as a rule, active = well fitted inhibition curve with a large enough effect; inconclusive = small, poorly fitted or top-dose-only effect; inactive = no such curve, though single readings can be large or run the other way. Potencies of inconclusive entries are left out as doubtful fits.",
  "data": [
    {"target": "Glucagon-like peptide 1 receptor (Homo sapiens) (UniProt P43220)", "sequence (P43220 whole entry, looked up)": "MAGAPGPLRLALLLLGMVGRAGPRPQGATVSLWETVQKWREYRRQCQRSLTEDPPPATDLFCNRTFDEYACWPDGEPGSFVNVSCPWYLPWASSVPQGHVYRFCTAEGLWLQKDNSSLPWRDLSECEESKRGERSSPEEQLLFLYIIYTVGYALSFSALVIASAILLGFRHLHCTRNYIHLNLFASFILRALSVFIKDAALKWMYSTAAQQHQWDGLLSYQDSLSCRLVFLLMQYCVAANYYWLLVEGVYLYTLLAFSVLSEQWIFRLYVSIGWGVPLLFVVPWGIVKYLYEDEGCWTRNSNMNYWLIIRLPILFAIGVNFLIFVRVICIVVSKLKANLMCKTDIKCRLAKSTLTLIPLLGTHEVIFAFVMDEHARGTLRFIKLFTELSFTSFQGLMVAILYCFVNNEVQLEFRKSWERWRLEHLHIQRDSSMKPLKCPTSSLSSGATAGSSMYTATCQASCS", "experiment": "qHTS of GLP-1 Receptor Inverse Agonists (Inhibition Mode); note: nearly all actives have a fitted effect of over 55% in size; note: potency is the fitted concentration of half-maximal effect; tags give direction and shape of the fitted curve; for activity change, negative = inhibition: % is set by controls: 0 for no effect and ±100 for the full control effect", "details": "HEK293 GLP-1R CRE-luciferase, luminescence, 24 h, GLP-1R form is constitutively active; activity change, negative = inhibition: at 38.3 µM (top of the series) unless noted", "method_in_brief": "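Cells are plated, allowed 12 hours at 37 deg C, then treated with compounds for 24 hr before luciferase detection reagent is added and luminescence is read after 12 min at room temperature. The HEK293 line carries constitutively active GLP-1R with a cAMP-responsive reporter.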", "values": [
      {"compound": "CN(C)N1C(N)=C(C#N)C(c2cccc3ccccc23)C2=C1CC(c1ccccc1)CC2=O", "note": "(stereo unspecified)", "Potency": "inconclusive [inhibitor, full curve]"},
      {"compound": "c1ccc2c(-c3cnc4cccnn34)cncc2c1", "activity change, negative = inhibition": "inactive: 1.04%"},
      {"compound": "CCOCCCNCc1cc(Br)ccc1OCC", "activity change, negative = inhibition": "inactive: -7.98%"},
      {"compound": "COCCn1c(SCC(=O)Nc2ccc(Br)cc2)nc2c([nH]c3ccccc32)c1=O", "activity change, negative = inhibition": "inactive: -2.99%"},
      {"compound": "COc1cccc(N2CCN(C(=O)CCC(=O)c3ccc(Cl)s3)CC2)c1", "Potency": "inconclusive [inhibitor, single point]"},
      {"compound": "O=C(NCCN1CCN(Cc2ccccc2)CC1)C1c2ccccc2C(=O)N2CCc3ccccc3C12", "note": "(stereo unspecified)", "Potency": "inconclusive [inhibitor, single point]"},
      {"compound": "Cc1cc(C)cc(NC(=O)C2CCCN(c3nnc(-n4c(C)ccc4C)s3)C2)c1", "note": "(stereo unspecified)", "Potency": "inconclusive [inhibitor, single point]"},
      {"compound": "Cc1cc(C(=O)N/N=C/c2c3ccccc3cc3ccccc23)n[nH]1", "Potency": "inconclusive [inhibitor, single point]"},
      {"compound": "CN1CCN(c2ccc(-c3nc(-c4ccccc4)no3)cc2[N+](=O)[O-])CC1", "Potency": "inconclusive [inhibitor, full curve, poor fit]"},
      {"compound": "CCOc1ccc(OCCSc2ccc(S(=O)(=O)N3CCN(C)CC3)cn2)cc1", "Potency": "inconclusive [inhibitor, single point]"},
      {"compound": "COC(=O)c1ccc(NC(=O)C(c2ccccc2)N2Cc3ccccc3C2=O)cc1", "note": "(stereo unspecified)", "activity change, negative = inhibition": "inactive: -17.6%"},
      {"compound": "Cc1cc(N2C(=O)C3C4c5ccccc5C(c5ccccc54)C3C2=O)no1", "note": "(stereo unspecified)", "Potency": "inconclusive [inhibitor, single point]"},
      {"compound": "CC(C)(C)c1cc(C(=O)NNC(=O)Nc2cccc(Cl)c2)n(Cc2ccccc2)n1", "Potency": "active: 5.01 µM"},
      {"compound": "O=C(NC(c1ccccc1)c1ccccc1)C1CCCC1", "Potency": "inconclusive [inhibitor, partial curve, poor fit]"},
      {"compound": "CN(C(=O)c1ccc(OC2CCN(CCc3ccccc3)CC2)cc1)C1CCCCC1", "Potency": "inconclusive [inhibitor, partial curve, poor fit]"},
      {"compound": "O=C(NCCC1=CCCCC1)c1ccc([N+](=O)[O-])cc1", "Potency": "inconclusive [inhibitor, single point]"},
      {"compound": "COc1cccc(CC2(CO)CCCN(Cc3ccccc3-c3ccco3)C2)c1", "note": "(stereo unspecified)", "Potency": "inconclusive [inhibitor, single point]"},
      {"compound": "Cc1ccc(-c2onc(C)c2C)cc1S(=O)(=O)N1CCc2ccccc21", "Potency": "inconclusive [inhibitor, partial curve]"},
      {"compound": "CC(=O)Nc1cccc(C(=O)OC(C(=O)c2ccc(C)c(C)c2)c2ccccc2)c1", "note": "(stereo unspecified)", "Potency": "inconclusive [inhibitor, single point]"},
      {"compound": "CC(C)CN(CC(C)C)c1nn[nH]n1", "activity change, negative = inhibition": "inactive: 19.1%"},
      {"compound": "CCC(C(=O)Nc1ccc([N+](=O)[O-])cn1)c1ccccc1", "note": "(stereo unspecified)", "Potency": "inconclusive [inhibitor, single point]"},
      {"compound": "O=C(/C=C/c1ccccc1O)c1ccc(Cl)cc1", "Potency": "inconclusive [inhibitor, partial curve]"},
      {"compound": "O=C1[C@H]2[C@@H](c3ccc(C(F)(F)F)cc3)N[C@]3(CCCN(Cc4ccc(Cl)cc4)C3=O)[C@H]2C(=O)N1Cc1ccccc1", "Potency": "active: 4.47 µM"},
      {"compound": "Brc1ccc2ncnc(NCc3cccnc3)c2c1", "Potency": "inconclusive [inhibitor, full curve, poor fit]"},
      {"compound": "O=C(O)/C=C/C(=O)Nc1ccc(C2(c3ccc(NC(=O)/C=C/C(=O)O)cc3)c3ccccc3-c3ccccc32)cc1", "Potency": "inconclusive [inhibitor, single point]"},
      {"compound": "Cc1ccc(C(c2c(C)n(C)n(-c3ccccc3)c2=O)c2c(C)n(C)n(-c3ccccc3)c2=O)s1", "Potency": "inconclusive [inhibitor, single point]"},
      {"compound": "Cc1ccc(NC(=S)N/N=C/c2ccc(OCCC(C)C)cc2)c(C)c1", "Potency": "inconclusive [inhibitor, single point]"},
      {"compound": "CCOC(=O)[C@]12CCC=C1N(Cc1cccc3ccccc13)C(=O)[C@H](CC(=O)NCc1cccc(C(F)(F)F)c1)C2", "Potency": "inconclusive [inhibitor, partial curve, poor fit]"},
      {"compound": "COCCN(Cc1cn(C)nc1-c1ccc(Oc2ccccc2)cc1)C(C)C", "Potency": "inconclusive [inhibitor, single point]"},
      {"compound": "Cn1c(CCCOc2ccc(Cl)cc2Cl)nnc1SCC(=O)Nc1cccc(F)c1", "activity change, negative = inhibition": "inactive: 2.06%"},
      {"compound": "CN(Cc1ccccc1)C(=O)CSc1nc2ccccc2c(=O)n1Cc1ccco1", "Potency": "inconclusive [inhibitor, single point]"},
      {"compound": "Nc1c(Cl)cc(-c2[nH]c3cc(C(=O)NCCO)ccc3c(=O)c2O)cc1Cl", "activity change, negative = inhibition": "inactive: 15.6%"},
      {"compound": "CCN(CC)CCCNC(=O)c1ccc2c(c1)NC(=O)C(CS(=O)(=O)Cc1ccc(F)cc1Cl)N2", "note": "(stereo unspecified)", "activity change, negative = inhibition": "inactive: -3.65%"},
      {"compound": "CN(C)c1cccc(C(=O)NCCCSc2ccccc2)c1", "Potency": "inconclusive [inhibitor, partial curve, poor fit]"},
      {"compound": "CCN(CC(=O)Nc1ccccc1C(F)(F)F)C(=O)c1cc(-c2ccccc2)nn1-c1ccccc1", "Potency": "inconclusive [inhibitor, partial curve, poor fit]"},
      {"compound": "O=c1sc2ccccc2n1CCCOc1ccccc1", "Potency": "inconclusive [inhibitor, single point]"},
      {"compound": "O=C(Nc1ccccc1)Nc1ccc(NC(=O)c2ccccc2O)cc1", "Potency": "inconclusive [inhibitor, partial curve, poor fit]"},
      {"compound": "Cc1ccc(O)c(NC(=O)c2cc([N+](=O)[O-])ccc2Cl)c1", "Potency": "inconclusive [inhibitor, partial curve, poor fit]"},
      {"compound": "CC1Sc2ccc(C(=O)Nc3ncccc3O)cc2NC1=O", "note": "(stereo unspecified)", "Potency": "inconclusive [inhibitor, single point]"},
      {"compound": "CCOC(=O)c1c(NC(=O)COc2ccc(OC)cc2)sc(C(=O)N(CC)CC)c1C", "Potency": "active: 7.94 µM"},
      {"compound": "O=C(NCCCCc1ccccc1)C1CC(c2ccc(C(F)(F)F)cc2)=NO1", "note": "(stereo unspecified)", "Potency": "inconclusive [inhibitor, single point]"},
      {"compound": "CN1C(=O)CON=C1c1cccc2ccccc12", "activity change, negative = inhibition": "inactive: 7.44%"},
      {"compound": "O=C(NCCSCc1c(F)cccc1Cl)Nc1ccccc1", "Potency": "inconclusive [inhibitor, partial curve, poor fit]"},
      {"compound": "O=C(COC(=O)c1cc(-c2cccs2)nc2ccccc12)NCc1ccco1", "Potency": "inconclusive [inhibitor, single point]"},
      {"compound": "Cc1cccc(Oc2nc(-c3ccncc3)nc3ccccc23)c1", "Potency": "inconclusive [inhibitor, single point]"},
      {"compound": "CCC(=O)N1N=C(c2cccs2)CC1c1ccc(OC)cc1", "note": "(stereo unspecified)", "activity change, negative = inhibition": "inactive: -5.39%"},
      {"compound": "COc1ccc(NC(=S)NC(=O)/C=C/c2ccco2)c(OC)c1", "activity change, negative = inhibition": "inactive: 20.9%"},
      {"compound": "O=C(Cc1ccc(Cl)cc1)N1CCN(c2ccccc2)CC1", "Potency": "inconclusive [inhibitor, partial curve, poor fit]"},
      {"compound": "Cc1ccc(C(c2cc(Cl)c3cccnc3c2O)N2CCN(C)CC2)cc1", "note": "(stereo unspecified)", "Potency": "inconclusive [inhibitor, single point]"},
      {"compound": "CCN(C(=O)C1CCCN(c2nc(-c3ccc(OC)cc3)no2)C1)c1ccc(OC)cc1", "note": "(stereo unspecified)", "Potency": "inconclusive [inhibitor, single point]"},
      {"compound": "CN(C)c1ccc(/C=N/n2cnn(Cc3ccccc3Cl)c2=S)cc1", "Potency": "inconclusive [inhibitor, single point]"},
      {"compound": "COc1ccccc1NC(=O)c1oc2ccccc2c1NC(=O)C1CC1", "Potency": "inconclusive [inhibitor, single point]"},
      {"compound": "S=c1[nH]c(-c2ccc(Br)cc2)cn1CCc1ccccc1", "activity change, negative = inhibition": "inactive: 9.61%"},
      {"compound": "CCC1=Nc2cc(C(=O)N3CCC(C)CC3)ccc2Sc2ccc(C)cc21", "Potency": "inconclusive [inhibitor, partial curve, poor fit]"},
      {"compound": "CC1=CC(C)(C)Nc2ccc(OS(=O)(=O)c3ccc(C)cc3)cc21", "Potency": "inconclusive [inhibitor, single point]"},
      {"compound": "COc1ccc2cc(CCNC(=O)c3ccco3)c(=O)[nH]c2c1", "activity change, negative = inhibition": "inactive: -9.64%"},
      {"compound": "CN(C)CC(=O)Nc1ccc(Oc2ccc(Cl)cc2)cc1", "Potency": "active: 5.01 µM"},
      {"compound": "CCN(CC(=O)Nc1ccc(OC)cc1)C(=O)c1cccc(S(=O)(=O)N2CCN(c3ccccc3)CC2)c1", "Potency": "inconclusive [inhibitor, single point]"},
      {"compound": "CCOC(=O)CCN(Cc1cccs1)S(=O)(=O)c1ccc(Cl)cc1", "Potency": "inconclusive [inhibitor, partial curve, poor fit]"},
      {"compound": "COc1ccc(C(=O)NC(=S)NNC(=O)c2ccccc2O)cc1", "activity change, negative = inhibition": "inconclusive: -30.3% [inhibitor]"},
      {"compound": "CC(C)=CCc1c(-c2ccc(O)cc2O)oc2c3c(cc(O)c2c1=O)OC(C)(C)C=C3", "Potency": "inconclusive [inhibitor, partial curve, poor fit]"},
      {"compound": "Cc1ccc(N(CC(=O)NC2CCCC2)C(=O)c2nsc(Cl)c2Cl)cc1", "Potency": "inconclusive [inhibitor, partial curve, poor fit]"},
      {"compound": "Oc1cccc(CN2CCOCC2)c1O", "activity change, negative = inhibition": "inactive: 14.6%"},
      {"compound": "COc1ccc(-c2sc3ccc(N4CCOCC4)cc3c2C#CCO)cc1", "activity change, negative = inhibition": "inactive: -25%"},
      {"compound": "Cc1cccc(CNC(=O)C2CCN(S(=O)(=O)c3cccc4nonc34)CC2)c1", "activity change, negative = inhibition": "inactive: 1.05%"},
      {"compound": "CC(=O)Nc1cccc(C(=O)/C=C/c2ccc(Br)cc2)c1", "Potency": "inconclusive [inhibitor, partial curve, poor fit]"}
    ]}
  ]
}
